Assay results from the supplement of paper PMC3334620.
In all, about 33,000 sequences were measured (“E-score (-0.5 to 0.5)”: median about -0.032, highest 2% from about 0.36 on). The list shows a part of the results.

molecular target: T1, Sko1 (UniProt Q02100); experiment: PBM E-score (8-mer binding enrichment) (E-score (-0.5 to 0.5)); higher = stronger / more preferred TF binding; most listed sequences are background and not binding sites; conditions: protein concentration: 200 nM; construct: GST-full length
T1 sequence: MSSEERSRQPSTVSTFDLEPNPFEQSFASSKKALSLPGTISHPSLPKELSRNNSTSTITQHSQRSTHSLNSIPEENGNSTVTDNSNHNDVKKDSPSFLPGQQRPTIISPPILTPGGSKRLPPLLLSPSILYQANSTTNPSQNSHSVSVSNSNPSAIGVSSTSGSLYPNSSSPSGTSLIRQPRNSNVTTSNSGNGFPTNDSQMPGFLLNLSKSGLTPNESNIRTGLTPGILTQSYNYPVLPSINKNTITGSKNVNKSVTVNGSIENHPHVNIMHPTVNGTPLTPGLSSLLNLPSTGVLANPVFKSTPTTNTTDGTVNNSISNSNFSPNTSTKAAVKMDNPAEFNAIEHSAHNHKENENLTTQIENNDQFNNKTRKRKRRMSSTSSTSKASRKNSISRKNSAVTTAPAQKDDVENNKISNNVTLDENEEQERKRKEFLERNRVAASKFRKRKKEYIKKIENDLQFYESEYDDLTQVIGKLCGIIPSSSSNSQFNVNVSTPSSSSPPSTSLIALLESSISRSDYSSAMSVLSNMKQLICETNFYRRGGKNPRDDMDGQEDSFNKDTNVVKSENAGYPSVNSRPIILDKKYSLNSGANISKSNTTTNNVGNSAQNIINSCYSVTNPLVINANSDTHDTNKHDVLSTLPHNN
Description: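 Universal 'all 10-mer' protein binding microarrays (Agilent AMADID 015681) probed with GST-tagged S. cerevisiae TFs (full-length or DBD) made by in vitro transcription/translation (PURExpress), about 100-200 nM. Bound TF was detected with fluorescent anti-GST. Each ungapped 8-mer (which stands for itself and its reverse complement) is scored by the PBM enrichment score (E-score), a modified Wilcoxon-Mann-Whitney statistic from -0.5 to +0.5, computed with the Universal PBM Analysis Suite. Scale: above 0.35 generally sequence-specific binding.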

Sequence | PBM E-score
CTCCCATC | -0.206
GCCACGGA | -0.215
AACAACTT | 0.039
CAGAGACA | -0.2
ACACCTCT | -0.0505
GAATTAGA | 0.253
ACACTTTG | 0.132
ACAACTTC | 0.0266
CGGCCTCA | -0.178
TTATGAAA | 0.2
AGCTCGTC | 0.0876
GCTGCAAA | 0.0543
CACTCCGG | 0.0274
CAATCCTG | -0.0168
CGCCGGAC | -0.137
ATGGCTGA | 0.0743
AATCGAAG | 0.138
TAGCGAGA | -0.0215
ATTTGCGG | -0.0383
CCGATGCC | -0.239
AACCCTCT | -0.31
AGCCTAGC | -0.106

Sequence | PBM E-score
AGACCCGA | 0.0239
CCGCGTCA | 0.377
TGCTACCA | -0.106
CTACACTC | -0.194
TAGCACGA | 0.0815
ACCTCTTG | -0.201
AACCCGAA | -0.0411
AACGGCGT | 0.027
CGACTTAG | 0.0366
AGTACGAG | 0.00509
GCTAACTA | 0.0909
ACTCTTCG | 0.0552
GCCCTAAA | -0.188
GCCCCTTA | -0.325
ACTAACAT | 0.196
ACCAAACG | 0.0184
CTACTGTC | -0.131
GAGTTTAC | 0.103
ACTCCAGT | 0.0224
GAGGTCCC | -0.283
ATATTACC | 0.251
TGCGCACA | 0.109

Sequence | PBM E-score
AATTATCG | 0.279
TACTAGTA | 0.262
AGAAGAAA | 0.0314
AATATAGC | 0.171
CGCGGGGC | -0.261
GCTAGCAA | -0.131
AATCGGGG | -0.246
GAGTTCGA | 0.0938
ACATAGGA | -0.17
GCTCTCGA | -0.138
CAGCCGCC | -0.191
ACTAGAGC | -0.13
CCGACTCA | -0.246
CAAGAGTA | 0.029
AGTTTGTA | 0.0762
GAGACCAC | 0.0993
CGATCGGA | -0.154
ATACCAGC | -0.215
AGGTTGAT | -0.163
CGATTACG | 0.448
CGTATTCA | 0.332
ATATCGAC | 0.158

Sequence | PBM E-score
ATTTGAAG | -0.0311
GACCTACC | -0.281
TATAGAGA | 0.032
CGCGACTC | -0.0357
CGTGACAC | 0.195
AGCAGATG | -0.139
CCATTTCA | -0.154
CTCATGTA | 0.17
GCAACGAC | 0.0302
AATCGAAA | 0.131
AAAGCGGG | -0.187
CTGGTATA | -0.226
TATTGCGA | 0.193
ACCGAGTA | -0.101
TCCCGCCA | -0.331
GGCTTATA | -0.0538
CTATTTAC | 0.164
ATTGGGCG | -0.127
AATCACGC | 0.205
GAGCTGAA | -0.145
